Laboratory results taken from US8071318B2, “High throughput method and system for screening candidate compounds for activity against target ion channels” (Vertex Pharmaceuticals (San Diego) LLC, priority 2000, dated 2011).

test system: NaV2 sodium channel; details: CHO NaV2; 20 Hz stimulus; response at 1 second vs 3 seconds

SMILES | dependence of channel block on the time window (use-dependence, shift of dose-response curves)
CCN(CC)CC(=O)Nc1c(C)cccc1C [Lidocaine] | smaller amount of shift in the dose-response curves
CCCCN1CCCCC1C(=O)Nc1c(C)cccc1C (stereo not drawn) [Bupivacaine] | smaller amount of shift in the dose-response curves
CCCCNc1ccc(C(=O)OCCN(C)C)cc1 [Tetracaine, tetracaine] | an order of magnitude stronger at 3 seconds than at 1 second
